Laboratory results reported in PubChem BioAssay AID504332 (National Center for Advancing Translational Sciences (NCATS), 2011).
Out of some 350,000 compounds screened, about 31,000 (8.9%) were called active. The inconclusive results got no clear call from the source; some entries with a clear call stand among them for comparison. The call rests on the fitted dose curve; in most records, active means well fitted inhibition curve with a large enough effect; inconclusive means small, poorly fitted or top-dose-only effect; inactive means no such curve, though single readings can be large or run the other way. Potencies of inconclusive entries are doubtful fits and often do not repeat.

Biological target: Histone-lysine N-methyltransferase EHMT2 (Homo sapiens) (UniProt Q96KQ7)
UniProt Q96KQ7, sequence (Q96KQ7 whole entry, looked up): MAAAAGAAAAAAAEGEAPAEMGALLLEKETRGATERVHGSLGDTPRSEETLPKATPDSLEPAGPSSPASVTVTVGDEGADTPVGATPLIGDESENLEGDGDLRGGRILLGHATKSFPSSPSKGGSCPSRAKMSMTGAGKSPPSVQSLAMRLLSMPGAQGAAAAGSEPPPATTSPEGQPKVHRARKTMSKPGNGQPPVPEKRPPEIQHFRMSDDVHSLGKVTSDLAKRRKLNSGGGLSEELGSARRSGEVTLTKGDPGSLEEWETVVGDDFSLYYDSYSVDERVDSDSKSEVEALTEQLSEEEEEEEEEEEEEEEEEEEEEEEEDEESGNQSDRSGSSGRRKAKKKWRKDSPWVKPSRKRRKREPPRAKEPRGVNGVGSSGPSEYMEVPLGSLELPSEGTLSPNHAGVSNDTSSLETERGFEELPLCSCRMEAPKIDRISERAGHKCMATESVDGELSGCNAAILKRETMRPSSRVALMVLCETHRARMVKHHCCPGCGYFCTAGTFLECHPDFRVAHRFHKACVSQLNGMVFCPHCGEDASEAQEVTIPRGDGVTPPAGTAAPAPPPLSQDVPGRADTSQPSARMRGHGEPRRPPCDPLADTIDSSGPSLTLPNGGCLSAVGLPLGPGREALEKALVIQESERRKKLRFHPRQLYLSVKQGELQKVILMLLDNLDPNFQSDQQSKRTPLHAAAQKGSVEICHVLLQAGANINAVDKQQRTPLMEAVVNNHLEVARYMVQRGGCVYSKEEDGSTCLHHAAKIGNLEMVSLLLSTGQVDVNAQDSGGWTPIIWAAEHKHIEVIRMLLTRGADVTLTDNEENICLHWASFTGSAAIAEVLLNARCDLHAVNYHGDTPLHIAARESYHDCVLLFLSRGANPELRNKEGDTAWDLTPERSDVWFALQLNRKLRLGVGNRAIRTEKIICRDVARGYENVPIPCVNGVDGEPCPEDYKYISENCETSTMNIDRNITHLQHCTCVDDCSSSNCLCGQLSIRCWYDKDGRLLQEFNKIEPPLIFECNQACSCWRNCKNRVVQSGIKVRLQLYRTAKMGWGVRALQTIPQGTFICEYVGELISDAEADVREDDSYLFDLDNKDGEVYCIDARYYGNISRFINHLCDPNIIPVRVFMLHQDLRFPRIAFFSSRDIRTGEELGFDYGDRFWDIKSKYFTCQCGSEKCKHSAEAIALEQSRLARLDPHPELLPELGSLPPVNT
Assay: qHTS Assay for Inhibitors of Histone Lysine Methyltransferase G9a; further: nearly all actives have a fitted effect of over 75% in size
Settings: G9a H3K9 monomethylation, AlphaScreen, 2 h; activity, negative = inhibition: at 59 µM (top of the series) unless noted
How it was run: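 Methyltransferase reactions run at room temperature for 2 h (20 nM enzyme, 500 nM biotin-H3K9 peptide, 20 uM SAM) after a 15 min compound preincubation; product detected by AlphaScreen beads and anti-H3K9me1 antibody.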
On the % scale 0 is the no-effect control and ±100 the full control effect; potency means the concentration at half of the fitted maximal effect; tags describe the fitted curve by direction and shape.

SMILES | Potency | activity, negative = inhibition
CCc1cc(C(=O)Nc2cc(S(=O)(=O)N(CC)CC)ccc2N2CCN(C)CC2)sc1C | active: 35.5 µM | 
COc1ccccc1/C=C1\S/C(=N/NC(=O)c2cccc(Br)c2)NC1=O | inactive | 
CC1Cc2ccccc2N1C(=O)CSc1nnc2c(n1)[nH]c1ccc(F)cc12 (centres undefined) | inconclusive: 28.2 µM [inhibitor, single point] | 
Cc1ccc(-n2c(Cc3cccc4ccccc34)n[nH]c2=S)c(C)c1 | inconclusive: 35.5 µM [inhibitor, partial curve, poor fit] | 
COc1cccc(CSc2nc3ccncc3n2CC(=O)Nc2ccc(OC)c(OC)c2OC)c1 | inconclusive: 22.4 µM [inhibitor, partial curve, poor fit] | 
C=CCn1c(SCC(=O)N(CCOC)c2c(N)n(CC(C)C)c(=O)[nH]c2=O)nc2ccccc21 |  | inactive: 4.09% [at 0.501 µM]
CN1CCN(c2ccc([N+](=O)[O-])cc2NC(=O)c2ccco2)CC1 | inactive | 
COc1ccc(N=Nc2cc(-c3ccccc3)ccc2O)cc1 | inconclusive: 0.158 µM [inhibitor, full curve, poor fit] | 
NC(=O)N/N=C/c1c(Sc2nnnn2-c2ccccc2)nc2ccccn2c1=O | active: 50.1 µM | 
O=C(CN1CCN(c2ccc(O)cc2)CC1)Nc1cc(S(=O)(=O)N2CCOCC2)ccc1Cl | active: 3.16 µM | 
CC(=O)Nc1cc(C(=O)O)ccc1S(=O)(=O)c1ccc(Cl)cc1 | active: 50.1 µM | 
O=C(CCn1nc(-c2ccc(Cl)cc2)ccc1=O)N1CCN(c2ccc(F)cc2)CC1 | inconclusive: 89.1 µM [inhibitor, single point] | 
CC(C)c1nnc(SCC(=O)NCCC2=CCCCC2)n1N | active: 8.91 µM | 
Cc1cc(C)c2c(=O)c3c(oc2c1)C(=O)N(CCO)C3c1cccc(O)c1 (centres undefined) | inconclusive: 0.1 µM [inhibitor, full curve, poor fit] | 
CCc1nnc(NC(=O)c2sc3nc4cc(C)ccc4cc3c2N)s1 | inconclusive: 35.5 µM [inhibitor, partial curve, poor fit] | 
N#C/C(=C/c1cccs1)c1ccccn1 | inconclusive: 28.2 µM [inhibitor, single point] | 
CC[C@H](C)[C@@H]1NC(=O)c2cc([N+](=O)[O-])cc(F)c2NCCCC[C@@H](C(N)=O)NC(=O)[C@H](CCCCN)NC1=O | inconclusive: 89.1 µM [inhibitor, single point] | 
COc1ccc(OC)c(N2C(=O)c3cccnc3C2=O)c1 | inactive | 
C/C(=N\NC(=S)NCCc1ccccc1)c1ccc(O)cc1O | inconclusive: 89.1 µM [inhibitor, single point] | 
CCc1ccccc1NC(=O)C1CCN(S(=O)(=O)c2cn(C)cn2)CC1 |  | inactive: 3.31% [at 12.7 µM]
CCc1cc(=O)oc2cc(C)c(CN3CCCC(C)C3)c(O)c12 (centres undefined) | inconclusive: 25.1 µM [inhibitor, single point] | 
CCCn1c(C2CC(=O)N(c3cc(OC)ccc3OC)C2)nc2ccccc21 (centres undefined) | inconclusive: 35.5 µM [inhibitor, full curve, poor fit] | 
C[C@H]1CN(CCc2ccccc2)C(=O)[C@@H]1CC(=O)NCc1ccccc1 | inconclusive: 89.1 µM [inhibitor, single point] | 

SMILES | Potency | activity, negative = inhibition
Cc1c(/C(O)=C2\C(=O)C(=O)N(CCN(C)C)C2c2ccccc2)cnn1-c1ccccc1 (centres undefined) |  | inconclusive: -86.2% [inhibitor]
CCNC(=O)NC(=O)C(C)Sc1nnc(COc2ccccc2Cl)o1 (centres undefined) | active: 17.8 µM | 
O=S(=O)(c1ccc(Cl)cc1)c1nc(-c2cccs2)oc1N1CCCCC1 | active: 14.1 µM | 
O=C(Nc1cc(Br)c(O)c(Br)c1)c1cccc(NC(=O)c2ccco2)c1 | active: 39.8 µM | 
COc1ccc(CCNCc2cc(C)n(-c3ccc(OC)cc3)c2C)cc1 |  | inactive: -11% [at 2.33 µM]
Cc1ccc(S(=O)(=O)N(C)C)cc1-n1c(SCC(=O)Nc2ccccc2)nc2ccccc2c1=O | inactive | 
COc1ccccc1Oc1ccc(S(=O)(=O)N2CCCCC2)cc1NC(=O)CCNC(C)=O | inconclusive: 44.7 µM [inhibitor, partial curve, poor fit] | 
CCOc1cc(C(=O)Nc2cc3c(cc2N2CCCC2)n(C)c(=O)c(=O)n3C)cc(OCC)c1OCC | active: 10 µM | 
CCCN(CCC)C(=O)c1ccc2c(=O)n(Cc3ccco3)c(=S)[nH]c2c1 | inconclusive: 79.4 µM [inhibitor, partial curve, poor fit] | 
Cc1ccc(OCCOc2cccc(/C=N/NC(N)=O)c2)cc1 | inconclusive: 79.4 µM [inhibitor, single point] | 
Cc1ccc(-c2nn(C(C)(C)C)c3ncnc(NS(=O)(=O)c4ccc([N+](=O)[O-])cc4)c23)cc1 | inconclusive: 70.8 µM [inhibitor, single point] | 
Cc1cc(Cl)cc(C)c1OCCCCN1CCOCC1 | inconclusive: 50.1 µM [inhibitor, partial curve] | 
Cc1cc(C)c2nc3s/c(=C/c4ccccc4)c(=O)n3c2c1 | active: 1.26 µM | 
Cc1cc(C)nc(SCC(=O)OCC(=O)N(C)c2c(N)n(Cc3ccccc3)c(=O)[nH]c2=O)n1 | inactive | 
CCOC(=O)C1CCCN(c2nc3ccccc3nc2NS(=O)(=O)c2ccc(C)cc2)C1 (centres undefined) | inactive | 
COc1cccc(-c2nc(CS(=O)(=O)CC(=O)NC3CCCc4ccccc43)c(C)o2)c1 (centres undefined) | inconclusive: 25.1 µM [inhibitor, partial curve] | 
O=c1oc(-c2cccnc2)nc2ccccc12 | inconclusive: 44.7 µM [inhibitor, partial curve] | 
CC(C)OCCCNc1ncc2c(n1)CC(c1ccc(N(C)C)cc1)CC2=O (centres undefined) | active: 35.5 µM | 
COCc1nc2ccccc2n1Cc1ccc(C(C)(C)C)cc1 | inactive | 
COc1ccc(CCNCc2csc3nc4ccccc4n23)cc1OC | active: 50.1 µM | 
N#Cc1ccccc1S(=O)(=O)N1CCN(CC(O)CN2CCOCC2)CC1 (centres undefined) | inconclusive: 14.1 µM [inhibitor, partial curve, poor fit] | 
COc1ccc(S(=O)(=O)c2c[nH]c(=S)[nH]c2=O)cc1Cl | active: 79.4 µM | 
COc1ccc2nc(SCC(=O)Nc3cc(OC)c(OC)cc3C(=O)O)c(C)cc2c1 | active: 56.2 µM | 

SMILES | Potency | activity, negative = inhibition
CCN(CC)c1ccc(/C=N/NC(=O)C2CC2)cc1 | inconclusive: 56.2 µM [inhibitor, single point] | 
CN(C)c1ccc(/C=N/NC(=O)COc2ccccc2)cc1 | inconclusive: 35.5 µM [inhibitor, partial curve, poor fit] | 
CCN(CC)CCCn1c2c(c(SCC(=O)Nc3ccc(C)c(F)c3)nc1=O)CCC2 | active: 56.2 µM | 
Cc1ccccc1N(CC(=O)N/N=C/c1ccc(F)cc1)C(=O)c1ccccc1 | inconclusive: 35.5 µM [inhibitor, single point] | 
CCOC(=O)c1c(-c2ccc(C)cc2)csc1/N=C(\C)C1=C(O)c2ccccc2C1=O | active: 28.2 µM | 
C=CCn1c(C)cc(C(=O)CSc2nnc(Cc3ccccc3)o2)c1C | inconclusive: 39.8 µM [inhibitor, single point] | 
CC(=O)N1CCC(N(Cc2ccc(C)o2)C(=O)Nc2cccc(C(F)(F)F)c2)CC1 | inconclusive: 25.1 µM [inhibitor, single point] | 
O=C(c1cccc2ccccc12)N1CCCCC1 | inactive | 
COCCNc1nnc(SC(C)C(=O)Nc2ccc(-c3nc4ccc(C)cc4s3)cc2)s1 (centres undefined) | inactive | 
CC(OC(=O)C1CCN(S(=O)(=O)c2ccc(Cl)cc2)CC1)C(=O)NC1CCCCC1C (centres undefined) | inconclusive: 79.4 µM [inhibitor, partial curve, poor fit] | 
CC(C(=O)Nc1cccc([N+](=O)[O-])c1)N(c1ccccc1)S(C)(=O)=O (centres undefined) | inconclusive: 56.2 µM [inhibitor, partial curve, poor fit] | 
c1ccc(CNc2ccc3ccccc3n2)nc1 | inactive | 
Cc1nn(Cc2ccccc2)c2c1C(c1ccccc1)C(C#N)=C(N)O2 (centres undefined) | inconclusive: 39.8 µM [inhibitor, single point] | 
CC(C)C[C@H]1CN=C(Nc2ccccc2)N1CC1CCC(C)CC1 (some centres undefined) | inconclusive: 79.4 µM [inhibitor, single point] | 
Cc1ccc(-c2cnc(C3CC3)o2)cc1S(=O)(=O)Nc1cccc(C)c1C |  | inactive: -9.84% [at 12.7 µM]
Cc1ccc(CNC(=O)C(Cc2ccccc2)NS(=O)(=O)c2ccc(Br)s2)cc1 (centres undefined) | inconclusive: 89.1 µM [inhibitor, single point] | 
O=C(O)C(Cc1ccccc1)N1CCS(=O)(=O)CC1 (centres undefined) | inactive | 
Cc1ccc(C(=O)CSc2nnc(C)s2)cc1 | inconclusive: 0.891 µM [inhibitor, full curve, poor fit] | 
Cc1ccc(S(=O)(=O)N/N=C/c2cccs2)cc1 | inconclusive: 89.1 µM [inhibitor, single point] | 
COc1ccc2[nH]c3c(c2c1)CCN(C(=O)CCC1CCCC1)C3c1ccc(F)cc1 (centres undefined) | inconclusive: 11.2 µM [inhibitor, partial curve] | 
COc1cc(OC)c(C(=O)OCC(=O)Nc2nnc(-c3ccccc3)o2)cc1OC | inconclusive: 1.58 µM [inhibitor, full curve, poor fit] | 
CC(Sc1nc(-c2ccccc2)cc(C(F)(F)F)n1)C(=O)Nc1sc2c(c1C(N)=O)CCC2 (centres undefined) | inconclusive: 39.8 µM [inhibitor, single point] | 
CCN(Cc1nc2cc(Cl)ccc2c(=O)[nH]1)C(=O)c1cc(C2CC2)nn1-c1ccccc1 | inconclusive: 50.1 µM [inhibitor, partial curve] | 
